Results: the RNAGym collection of RNA variant scans (doi:10.7554/elife.90254)
The source gives no read counts; variants with many changes may rest on few reads.

B1: LINE1-full (parent)
chain: UACGUAGGUGGUUUUCCCCUGAUAGUGCUAAGGGGGCCUGGAAGUUUGGACUGGGCAGAGCUCAACACAGCGUGGCAAAGUGGCUGUGGCUAGACUGCCUCUCUGGAUUCCUCGUCACUCAGCAGGGCAUCUCUGAGAGAAAUGCC

Variants of: B1
Assay: self-cleavage, relative activity (ratio to wild type); higher = more cleavage; in vitro, sequencing; the parent is a self-cleaving ribozyme

Variant | self-cleavage
U12C U46A A78C A94G U119C | 0.86
U12C U13C G40A A121G C131U | 1.19
U12G C98U U102C | 0.32
U13A U29C A92G U130A | 0.12
U12G A22G A59G U119C | 0
U12C U14C A69G C76U A79G U119G | 0
U13A A50G A142G | 0.66
U12C G54A U73C A140G | 0.4
U12C U13C G48A A78G | 0.78
U12C U47G A57U U134C | 0.09
U12G A42U A140G | 1.27
U13C A22G A42G A79U U119C | 1.62
U12C U13C U87A A92G G126A A140G | 0.61
U12C U39C U109C A136G | 0.84
U12C U62C A117U U119C | 0.14
U12C U39C U102A | 1.18
U12C U45G U102C U134C | 0.79
U12C U26C G54C C56A U115A | 0.31
U12G A67U A77G U104C | 0
U12G U39G A94U U134C | 0.29
U12C G86A A124C | 0.39
U12G A42G A142G | 0.59
U12C U87A A92G | 0.09
U12C G32A A43G | 1.23

Variant | self-cleavage
U12C G35U A57G U100C U115G | 0
U13A U45C A69G | 0.27
U12C U100C A141G | 0.6
U12G U29A U108C A140G | 0.84
U12G U46C U102A A142G | 1.06
U12C U47A U62C G114U | 0
U12G G97A U119C A138U | 0.25
U13A A77G G126A A140U | 1.25
U12G C19U G33A A50G C84A | 0.07
U12C U47C G54U A65G | 0.14
U12C U15C A136G | 1.31
U12C G35A U46C U73C C98A | 0.3
U12C G127C A136U | 1.51
U13A U29A A42G A69U A129G | 0.1
U13A U62C U96C U143C | 0.04
U12G C37A A57U U81C A129G A138U | 0
U12C U15C A43G G106A A117G | 0.88
U13A A65G A79G U134C | 0
U13A U15C A69G | 0.19
U12G A107U G126A G127U U132C C146A | 1.37
U13A U47A U96C A129U | 0.08
U13A A31G U62A U108C | 0.16
U12C G36A G48A U96G U109C | 0.1
U13A U45A U73C A124G G126U A129C A141G | 1.12

Variant | self-cleavage
U12C U47A U52C G83A | 1.09
U12G U29C U39C A43G G54A | 1.24
U12G A42G U52C A59U A64G U112A | 0
U12G G41A U119C U132C G139U | 1.34
U13A A24U A59G | 0.06
U12G U15A A43G U47A U87A U96A | 0.25
U12C U29C G89A | 0.17
U12C G27A C63A | 0.01
U13A U29A C71U | 0.74
U12C U14A U104C | 1.46
U12C U115C A117G | 1.84
U12G A50G U73C | 1.84
U12C U29G C51U A79G U85C A141G | 0.38
U12G G54A A117G | 0.94
U13A A69G A121G | 0
U13A U102C G114A U119C C128U | 0.55
U12C U15C U20C A59U U85C U112C A121U | 0
U12C G53A A79G | 1.27
U12C G48A C68A U119C | 0.03
U12C U45C C103A U119C A121G | 1.2
U12C U23C A64G U73C | 1.67
U12G U14A G53A A78U U85A U91A | 0.19
U12C U13C A22G G27U A138U | 1.29
U12C U39A U143C | 1.57

Variant | self-cleavage
U13C A22G A121C | 2.21
U12G U85A C110A | 0.09
U12G U87C A129U | 1.1
U12G A43G A69G G72C U73C | 2.63
U13A G88U A124G A136U | 0.04
U12C U29A A142U | 1.21
U12G U20C U23C C133U A142G | 1.13
U12C U39C G88A | 0.08
U12G U96C U134C | 0.63
U12G G32A A140G | 1.39
U12C G41U A50U U52C A59G U96C U108C | 0
U12G U39C C68A A77G U81C | 0.19
U12C U29C G40A U47A U119C | 1.52
U12C U20C U62A C95A U130C | 0.1
U12C U14C U87G C131U | 0.04
U12G A64G C133U | 0.24
U12C U62A A67U A79G | 0.04
U12C U13C G93A | 0.07
U12C U39A U102C | 1.49
U12G G36C A43G A57G U85C | 0.48
U12G A43U U46C A138G | 0.38
U12G U115A A121U U130C | 1.02
U12G C38A U46C A67G U108C A124U U134A A138U | 0.44
U13A G36A A50G A57G | 0.28

Variant | self-cleavage
U12G U62C U132C | 0.04
U13A A78U A92G U130C | 0.06
U12C U45A U119C A124G U132C | 0.46
U12G U14C U100A A121G | 0.31
U12C U96G A121C A124U | 0.17
U12C G48U U102C | 0.69
U12C G32A A64G U108A U130C A141G | 0.24
U12C G35A U39C U52A | 1.73
U13A U52C G54A U112G U130C | 0.74
U12G U20C U115C A129U | 1.72
U12C G86U U91C U115C | 0.23
U12C U62C A69U | 0.08
U12C G49A A92G | 0.29
U12G U47C A59G U81C | 0
U12G A50U G126A | 0.82
U12C G72A U134A | 1.23
U12C U20C A30U U47C A64U U143C | 0.67
U13A U15A A59U A79G G125A | 0.39
U12C U13C U14C C56U U100C U134C A141G A142G | 2.16
U12C U46C A138G | 2.42
U12G U47A A79G A107G U112C A142G | 1.31
U12C U13C U14C | 1.04
U12C U46C G53A U130C A141G | 0.77
U13A U47A C56U U132A | 0.09

Variant | self-cleavage
U12C U39C U91A U108C | 0.77
U12G A22G G105U A129U | 1.46
U12G A50G A77U | 0.87
U13A A64C A140U | 0
U13A A67G A94G | 0
U12C U26C A121G A141G | 2.3
U13A U20C U52A U62G A92G G93A | 0
U12C U52A U115C U134C | 1.43
U12G U52C A78G G83A | 1.04
U12C U23A A50U U115A | 0.36
U12C U130C U134C | 1.84
U12C U130C U134A | 1.28
U13A C38A U134A | 0.98
U12C U14C U47C A136U | 0.73
U12C U26C A69U | 1.84
U13A U52C A94U | 0.48
U12C U62C U109C | 0
U12C U47C U81C A136U | 1.39
U12C U26C U46C | 0.88
U12C U26A U29A U46A U104C A138U | 0.91
U12C U23C U87A | 0.67
U13A A43G A94G | 0.2
U12G A22G U104A A124G U132C | 0.59
U12C U52A A57G U96C U104C | 1.97

Variant | self-cleavage
U12C G35A C38U A57U U73C A78G G106U A117G G144U | 0.04
U12C U45C G126U | 0.6
U12G U46C G48A A50G | 0.88
U12G A42G U134A | 1.24
U12C U13C U23A A24G A31G | 1.31
U13A A31U U73C U100A U109C | 0.51
U12G G35U A94U | 0.44
U12G A24U U47A | 1.09
U13A A43G A57U U62G | 0.19
U13C A22G A64G A77U | 0.15
U12C G25A A129G | 1.53
U12G A50G A64U A129G | 1.09
U12G U13C U45C U112A | 0
U12C U62C U104C | 0.23
U12G U20C A94G G127A | 1.02
U13A A31U U39C U62C A77G U104C | 0
U12C G106A U108C | 1.88
U12C U14C A64C | 0.4
U12C U108C U130C | 0
U13A U23A C90U U100A | 0.02
U12C U109C U112C | 0.97
U12C U52A U102A A117U A124G | 2.04
U12G A67C A94U A129G U132C | 0
